The other results are listed elsewhere or left out.
Test system: PF3D7_0420300 AP2 domain 1 (GST-tagged)
Experiment: gcPBM binding intensity (ln(normalized median fluorescence intensity)); higher = stronger DNA binding
Method in brief: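 GST-fused DNA-binding domains of P. falciparum, expressed in E. coli, were applied at about 25 μg on average for 1 h to an Agilent 4 × 180k array of primer-extended double-stranded 36-bp intergenic genomic probes and negative controls. Binding intensity is the highest Masliner-normalised natural-log median intensity across replicate spots of either probe orientation, measured with Alexa488 anti-GST antibody and a 488 nm scan.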

Row | Sequence | gcPBM binding intensity (ln)
1 | TTCGTATATTATTAATGTACATTATAAAATCAATAT [XGTACX_site5751] | 9.14
2 | AAAAAAACATGAAACACACACAAATATATATATATA [CACACA_site1884] | 9.74
3 | AACAATATTATTGTTTGTACTCACATATATAATATA [XGTACX_site8063] | 9.08
4 | AAAAAAAAAAAAAAAAAAAAAAAAAAAATTCTATAT [GTGCAC_negctrl_site468] | 9.36
5 | AAGGCATACAATACCTGTACGCAACCTTAAAAAGAA [XGTACX_site6070] | 9.11
6 | ATAATATATATACAAACACACAATTGTGTCCACATT [CACACA_site1747] | 9.74
7 | TGTACATATATATAATATATATATCATCATATTTTC [CACACA_negctrl_site1750] | 9.23
8 | TATATATATATATCCACACACATACAGATATTAAGA [CACACA_site4214] | 9.73
9 | AGTATACGAATAAAATGTACATACAAATTGTTGTAA [XGTACX_site36] | 9.34
10 | TCCTTAAAATATATCACACATTTCGTTCATTTATAA [CACACA_site4346] | 9.42
11 | ATTCACGTGTCTTAAAAAAAAAAAAAAGAAAAAAAG [CACACA_negctrl_site573] | 8.91
12 | ATATATATATATATATGTACATATATATACATATAT [XGTACX_site6987] | 9.13
13 | GTCTAAGCTTATAGGCGTACACATGAATATGGATGT [XGTACX_site2439] | 9.29
14 | ATACATAAAATTAAAACACACATTTGATTAAATACG [CACACA_site7088] | 9.63
15 | ATCAAGCGCAATGTGGTGCGTAAATTTTGTATTATA | 9.25
16 | AAAGGATACAGACACACACACACATATATATATATA [CACACA_site906] | 9.99
17 | GGATTTATTATATATACACACATACATATATATATA [CACACA_site8669] | 9.71
18 | ATAAGAAAAAAGAACTGTACTAATAAAATATAAAAA [XGTACX_site3715] | 9.3
19 | ATTATATAATTGTCTTCACACACACCGATATATATA [CACACA_site8883] | 9.93
20 | GCGGCGGTATCATGCACACGTATATATTGTAACAGT [CACACA_site4958] | 9.27
21 | TCATTGAAAAAAATGTGTACTCATCAAGTATATATT [XGTACX_site6430] | 9.15
22 | TTTACAGATACATTCACACATAAATTCATGTATAAT [CACACA_site5387] | 9.28

Row | Sequence | gcPBM binding intensity (ln)
23 | ATATATAATTTTTGTTGTACATTATAAAAATAATTA [XGTACX_site2738] | 8.94
24 | ATTGTTATGAGAACAGCACACAAGCTACATCATATA [CACACA_site8192] | 9.26
25 | TATATAAGGATATATACACACATATAGGTATTTATA [CACACA_site7092] | 9.42
26 | TCAGGAATATAAAGTGCACACATAATTTGGGGGCAA [CACACA_site7974] | 9.5
27 | AATATGATTATTACCCGTACATATTACCTTATGGTA [XGTACX_site1714] | 9.21
28 | AATGATATTATCTCTTCACACACTCACATACAGACA [CACACA_site8335] | 9.49
29 | TTTTAAAAAAATAAAAAATAATAAAAAAAATAAAAA [CACACA_negctrl_site1693] | 9.05
30 | AAAAATAAATAAAGTGGTACATAAAAAAGAGAAATT [XGTACX_site874] | 9.74
31 | GTGCATATGTAGATATGTACATATTTATTTATTATT [XGTACX_site7343] | 9.19
32 | TATTTATTATTATGTACACACTATATTAAAACATAA [CACACA_site4549] | 9.22
33 | TATGTGAATCCTAAGTGTACACATCTTACATATATA [XGTACX_site2506] | 9.3
34 | AGTATACGCAGACACACACACACATATATATATATA [CACACA_site1735] | 9.98
35 | GGTATATGCATAAAGAGTACGTAACTTCTTTTTGTT [XGTACX_site6344] | 9.48
36 | ATAAGATGATTAATTACACACTTTATAGGATATTTA [CACACA_site1711] | 9.29
37 | AAATGTGTAAATATAATTAGTTTCACAAAACAAATA [GTGCAC_negctrl_site543] | 9.29
38 | TTTTTTTTTTTTTCTTCACACACAGTACTACTATTT [CACACA_site8759] | 9.55
39 | TTAGCTTTTTTTTAAACATGCAACTACTTGATCCAC [TGCATGCA_site1017] | 8.95
40 | AAACGTAACATATATATATATATATATAAGATATAT [CACACA_negctrl_site126] | 9.37
41 | AATGAATATATATAAATATATATATATATATATATA [CACACA_negctrl_site1494] | 8.85
42 | ATAAATCTACACCGCACACAAAAACAACAAATATTA [CACACA_site5396] | 9.61
43 | ATGTTATTACATAATTGTACATTTTGAGCAATTAAG [XGTACX_site4640] | 9.08
44 | ATATTTGTATAAATTGCACACTTTATTTTTTTTAAG [CACACA_site1558] | 9.34

— the supplement of paper PMC11417369
